Results published in PubChem BioAssay AID256 (DTP/NCI, 2004).
Inconclusive results and toxic doses are left out. How the source made its calls: active means survival T/C of 150% or more; inactive means T/C below 125% in these data.

System: CD2F1 mice, L1210 leukemia ip, survival T/C
Experiment: NCI In Vivo Anticancer Drug Screen. Data for tumor model L1210 Leukemia (intraperitoneal) in CD2F1 (CDF1) mice
Conditions: endpoint: mean survival time, schedule: Q04DX002 (ip), vehicle: saline with Tween-80, higher = longer survival
Experimental: The antitumor activity of compounds was measured in mice bearing transplantable tumors. Survival or tumor size were measured and the results are expressed as the measurement made in the treated group (T) divided by the measurement made in the vehicle treated control group (C). The tumor model used in this assay is L1210 Leukemia (intraperitoneal) in CD2F1 (CDF1) mice

Measured: T/C

O=C(/C=C/c1ccccc1)Nc1ccccc1F
inactive: dose: 100.0 mg/kg/injection 100 % of control | dose: 200.0 mg/kg/injection 100 % of control | dose: 400.0 mg/kg/injection 96 % of control

O=C(/C=C/c1ccccc1)Nc1ccc(F)cc1
inactive: dose: 100.0 mg/kg/injection 96 % of control | dose: 200.0 mg/kg/injection 96 % of control | dose: 400.0 mg/kg/injection 96 % of control
